# The campaign covered roughly 350,000 compounds. About 260 (0.074%) were called active. Inconclusive means that the source gave no clear call. Such entries were picked first, then a sample of the others. Calls follow the shape of the dose curve; as a rule, active = well fitted inhibition curve with a large enough effect; inconclusive = small, poorly fitted or top-dose-only effect; inactive = no such curve, though single readings can be large or run the other way. A potency beside an inconclusive call is a rough fit, not a confirmed value.
# Molecular target: Ferritin light chain (Equus caballus) (UniProt P02791)
# Chain of UniProt P02791 (P02791 whole entry, looked up): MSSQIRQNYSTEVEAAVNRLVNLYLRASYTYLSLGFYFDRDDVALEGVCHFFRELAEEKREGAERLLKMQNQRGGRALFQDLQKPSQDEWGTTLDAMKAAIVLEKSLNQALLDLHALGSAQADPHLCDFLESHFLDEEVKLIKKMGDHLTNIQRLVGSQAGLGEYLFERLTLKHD
# Assay: qHTS Assay for Identification of Novel General Anesthetics; also: nearly all actives have a fitted effect of over 20% in size
# Settings: apoferritin/1-aminoanthracene competitive binding, fluorescence; series mostly up to 77.5 µM
# Summary of the method: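 Horse-spleen apoferritin (10 uM) was mixed with 50% saturated 1-aminoanthracene in PBS, exposed to compounds for 10 min at room temperature, and read for fluorescence (ex 380 nm, em 535 nm). Competitive displacement was fitted with a four-parameter Hill equation.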
# Potency is read from the fitted curve at half-maximal effect; tags tell the direction and shape of the fitted curve.
row,Structure (SMILES),Potency
1,NC(=O)c1ccccc1NC(=O)c1ccc(-c2ccc(Br)cc2)o1,inactive
2,CCOc1ccc(NC(=O)CNc2ccc(C)cc2Cl)cc1,"inconclusive: 17.8 µM [inhibitor, partial curve]"
3,O=C1NC(Nc2nc3ccccc3s2)(C(F)(F)F)C(=O)N1C1CCCCC1 (centres undefined),"inconclusive: 10 µM [inhibitor, partial curve]"
4,COc1cnn(Cc2ccccc2)c(=O)c1SCc1ccccc1,inactive
5,CC(=O)c1ccc(NC(=S)N2CCCCCC2)cc1,"inconclusive: 31.6 µM [inhibitor, partial curve]"
6,Cc1ccc(OCCOCCOc2ccc(Br)cc2/C=N\NC(=O)c2ccncc2)cc1,"inconclusive: 35.5 µM [inhibitor, single point]"
7,CCOC(=O)c1csc(NC(=O)CSc2nnc(C3CC3)n2C)n1,inactive
8,CCCOc1cccc(-c2cc(C(=O)N/N=C/c3cccnc3)c3ccccc3n2)c1,"inconclusive: 35.5 µM [inhibitor, partial curve]"
9,CCN(CC)S(=O)(=O)c1ccc2c3c(cccc13)C(=O)S2,"inconclusive: 17.8 µM [inhibitor, partial curve]"
10,COc1ccccc1NC(=O)NC1(C(=O)N2CCCCC2)CCCCC1,inactive
11,CCOc1ccc(/C=N/NC(=O)CNC(=O)c2ccc(S(=O)(=O)N3CCOCC3)cc2)cc1,"inconclusive: 39.8 µM [inhibitor, single point]"
12,CSc1nnc(CNC(=O)C23CC4CC(CC(C4)C2)C3)n1Cc1ccccc1,"inconclusive: 28.2 µM [inhibitor, partial curve]"
13,CC(=O)c1sc(NC(=O)C2(F)C(F)(F)C(F)(F)C(F)(F)C(F)(F)C2(F)F)nc1C,"inconclusive: 15.8 µM [inhibitor, partial curve]"
14,O=C(NCCc1cccc(Cl)c1)c1cccs1,"inconclusive: 20 µM [inhibitor, partial curve]"
15,CCOC(=O)N1CCN(C(=O)c2ccc3c(c2)sc2nc(-c4ccccc4)cn23)CC1,inactive
16,O=C(NCc1cccnc1)c1ccc(COc2ccccc2Br)cc1,"inconclusive: 31.6 µM [inhibitor, partial curve]"
17,Cc1nc2ccccc2nc1SCC(=O)N1CCC(C)CC1,"inconclusive: 22.4 µM [inhibitor, partial curve]"
18,Cc1nnc(NC(=O)C2CCCN(S(=O)(=O)c3ccccc3C(F)(F)F)C2)s1 (centres undefined),"inconclusive: 35.5 µM [inhibitor, partial curve]"
19,Oc1ccc2ccccc2c1-c1sc(Nc2ccccc2)n[n+]1-c1ccc(F)cc1,inactive

# Source: PubChem BioAssay AID485281 (National Center for Advancing Translational Sciences (NCATS), 2010)
